To fix the notation:
T1: RBFOX1 RRM (Homo sapiens, UniProt Q9NWB1 109-208)
T1 sequence: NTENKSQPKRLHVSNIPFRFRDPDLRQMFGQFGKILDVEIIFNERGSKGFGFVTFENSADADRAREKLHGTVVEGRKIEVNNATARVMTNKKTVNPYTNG

B1: CCCGUGC (DNA:RNA)
RNA: GGGAGACCGGAAUUCAGAUUGUCCCCCGUGCUUAAAUCCCGUCGUAGCCACCA
DNA 1: CAATCTGAATTCCGGTCTCCC
DNA 2: TGGTGGCTACGACGGGATT
B2: GAGAGUA (DNA:RNA)
RNA: GGGAGACCGGAAUUCAGAUUGUCCGAGAGUAUUAAAUCCCGUCGUAGCCACCA
DNA 1: CAATCTGAATTCCGGTCTCCC
DNA 2: TGGTGGCTACGACGGGATT
B3: AAGAUCA (DNA:RNA)
RNA: B2 RNA with G25A, G29U, U30C
DNA 1: CAATCTGAATTCCGGTCTCCC
DNA 2: TGGTGGCTACGACGGGATT
B4: AUACCCC (DNA:RNA)
RNA: B1 RNA with C25A, C26U, C27A, G28C, U29C, G30C
DNA 1: CAATCTGAATTCCGGTCTCCC
DNA 2: TGGTGGCTACGACGGGATT
B5: CUACUAU (DNA:RNA)
RNA: B1 RNA with C26U, C27A, G28C, G30A, C31U
DNA 1: CAATCTGAATTCCGGTCTCCC
DNA 2: TGGTGGCTACGACGGGATT
B6: ACUAUUG (DNA:RNA)
RNA: B1 RNA with C25A, C27U, G28A, G30U, C31G
DNA 1: CAATCTGAATTCCGGTCTCCC
DNA 2: TGGTGGCTACGACGGGATT
B7: UGCAACA (DNA:RNA)
RNA: B2 RNA with G25U, A26G, G27C, G29A, U30C
DNA 1: CAATCTGAATTCCGGTCTCCC
DNA 2: TGGTGGCTACGACGGGATT
B8: GAGACCA (DNA:RNA)
RNA: B2 RNA with G29C, U30C
DNA 1: CAATCTGAATTCCGGTCTCCC
DNA 2: TGGTGGCTACGACGGGATT
B9: GGGGCCA (DNA:RNA)
RNA: B2 RNA with A26G, A28G, G29C, U30C
DNA 1: CAATCTGAATTCCGGTCTCCC
DNA 2: TGGTGGCTACGACGGGATT
B10: AGCAACA (DNA:RNA)
RNA: B2 RNA with G25A, A26G, G27C, G29A, U30C
DNA 1: CAATCTGAATTCCGGTCTCCC
DNA 2: TGGTGGCTACGACGGGATT
B11: GUGUGGA (DNA:RNA)
RNA: B2 RNA with A26U, A28U, U30G
DNA 1: CAATCTGAATTCCGGTCTCCC
DNA 2: TGGTGGCTACGACGGGATT
B12: UAGGAGG (DNA:RNA)
RNA: B1 RNA with C25U, C26A, C27G, U29A, C31G
DNA 1: CAATCTGAATTCCGGTCTCCC
DNA 2: TGGTGGCTACGACGGGATT
B13: GCUGAGA (DNA:RNA)
RNA: B1 RNA with C25G, C27U, U29A, C31A
DNA 1: CAATCTGAATTCCGGTCTCCC
DNA 2: TGGTGGCTACGACGGGATT
B14: UCCCAAU (DNA:RNA)
RNA: B1 RNA with C25U, G28C, U29A, G30A, C31U
DNA 1: CAATCTGAATTCCGGTCTCCC
DNA 2: TGGTGGCTACGACGGGATT
B15: AUUCUAC (DNA:RNA)
RNA: B1 RNA with C25A, C26U, C27U, G28C, G30A
DNA 1: CAATCTGAATTCCGGTCTCCC
DNA 2: TGGTGGCTACGACGGGATT
B16: UCGAAUU (DNA:RNA)
RNA: B2 RNA with G25U, A26C, G29A, A31U
DNA 1: CAATCTGAATTCCGGTCTCCC
DNA 2: TGGTGGCTACGACGGGATT
B17: AGACGGC (DNA:RNA)
RNA: B1 RNA with C25A, C26G, C27A, G28C, U29G
DNA 1: CAATCTGAATTCCGGTCTCCC
DNA 2: TGGTGGCTACGACGGGATT
B18: GCAAACU (DNA:RNA)
RNA: B2 RNA with A26C, G27A, G29A, U30C, A31U
DNA 1: CAATCTGAATTCCGGTCTCCC
DNA 2: TGGTGGCTACGACGGGATT
B19: GACGCGG (DNA:RNA)
RNA: B1 RNA with C25G, C26A, U29C, C31G
DNA 1: CAATCTGAATTCCGGTCTCCC
DNA 2: TGGTGGCTACGACGGGATT
B20: GCCCUGA (DNA:RNA)
RNA: B1 RNA with C25G, G28C, C31A
DNA 1: CAATCTGAATTCCGGTCTCCC
DNA 2: TGGTGGCTACGACGGGATT
B21: CCAUCGC (DNA:RNA)
RNA: B1 RNA with C27A, G28U, U29C
DNA 1: CAATCTGAATTCCGGTCTCCC
DNA 2: TGGTGGCTACGACGGGATT
B22: AAGUCGC (DNA:RNA)
RNA: B1 RNA with C25A, C26A, C27G, G28U, U29C
DNA 1: CAATCTGAATTCCGGTCTCCC
DNA 2: TGGTGGCTACGACGGGATT
B23: CGCUCGC (DNA:RNA)
RNA: B1 RNA with C26G, G28U, U29C
DNA 1: CAATCTGAATTCCGGTCTCCC
DNA 2: TGGTGGCTACGACGGGATT
B24: UCUUUAU (DNA:RNA)
RNA: B1 RNA with C25U, C27U, G28U, G30A, C31U
DNA 1: CAATCTGAATTCCGGTCTCCC
DNA 2: TGGTGGCTACGACGGGATT
B25: GUACUGU (DNA:RNA)
RNA: B1 RNA with C25G, C26U, C27A, G28C, C31U
DNA 1: CAATCTGAATTCCGGTCTCCC
DNA 2: TGGTGGCTACGACGGGATT
B26: CUGCCCG (DNA:RNA)
RNA: B1 RNA with C26U, C27G, G28C, U29C, G30C, C31G
DNA 1: CAATCTGAATTCCGGTCTCCC
DNA 2: TGGTGGCTACGACGGGATT
B27: UCGUGCC (DNA:RNA)
RNA: B1 RNA with C25U, C27G, G28U, U29G, G30C
DNA 1: CAATCTGAATTCCGGTCTCCC
DNA 2: TGGTGGCTACGACGGGATT
B28: CGUAUAU (DNA:RNA)
RNA: B1 RNA with C26G, C27U, G28A, G30A, C31U
DNA 1: CAATCTGAATTCCGGTCTCCC
DNA 2: TGGTGGCTACGACGGGATT
B29: UCUGCUU (DNA:RNA)
RNA: B1 RNA with C25U, C27U, U29C, G30U, C31U
DNA 1: CAATCTGAATTCCGGTCTCCC
DNA 2: TGGTGGCTACGACGGGATT
B30: UCGACGU (DNA:RNA)
RNA: B1 RNA with C25U, C27G, G28A, U29C, C31U
DNA 1: CAATCTGAATTCCGGTCTCCC
DNA 2: TGGTGGCTACGACGGGATT
B31: UUACUAA (DNA:RNA)
RNA: B1 RNA with C25U, C26U, C27A, G28C, G30A, C31A
DNA 1: CAATCTGAATTCCGGTCTCCC
DNA 2: TGGTGGCTACGACGGGATT

Changes are numbered by the printed parent chain; changes in the protein carry UniProt numbers. The list shows a part of the results.

The values that follow come from paper PMC9911399, “Two distinct binding modes provide the RNA-binding protein RbFox with extraordinary sequence specificity”.

The assay deals with T1, RBFOX1 RRM. The assay is described as follows: EMSA; HiTS-Eq, 1 nM pool, 10 min; buffer printed only for the single-RNA assays: 10 mM Tris pH 7.5, 150 mM NaCl, 3.4 mM EDTA, 0.001% NP-40, 30 C. The conditions noted are these: tags: His6 N-terminal (pET28a); label: 5' 32P. The method in brief:
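Purified RbFox RRM (wild type or mutant) was equilibrated for 10 min in 50 µL with 1 nM of a 5′-radiolabelled pool of RNA with 7 randomized nucleotides, its flanks annealed to DNA oligonucleotides, across increasing protein concentrations. Free RNA was separated by 8% native PAGE, excised, reverse-transcribed, PCR-barcoded and sequenced on an Illumina HiSeq 2500. Relative association constants came from read-count changes of each variant against the control reaction, normalised to the cognate motif.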
For orientation: In EMSA bound probe runs differently from free probe, usually more slowly.
As to B1, the binding signal is 0.00736 KA relative to UGCAUGU.
Then B2, with 0.00819 KA relative to UGCAUGU.
B3: the binding signal is 0.00541 KA relative to UGCAUGU.
Then B4, with 0.000891 KA relative to UGCAUGU.
Under B5 stands 0.0035 KA relative to UGCAUGU.
Under B6 stands 0.0094 KA relative to UGCAUGU; under B7, 0.00988 KA relative to UGCAUGU; under B8, 0.00587 KA relative to UGCAUGU.
With B9, the binding signal is 0.0283 KA relative to UGCAUGU.
On to B10, for which the binding signal was 0.00318 KA relative to UGCAUGU.
Under B11 stands 0.00854 KA relative to UGCAUGU; under B12, 0.00616 KA relative to UGCAUGU.
Consider B13, for which the binding signal is 0.0165 KA relative to UGCAUGU.
Under B14 stands 0.00226 KA relative to UGCAUGU; under B15, 0.000861 KA relative to UGCAUGU.
As to B16, the binding signal was 0.00946 KA relative to UGCAUGU.
Under B17 stands 0.0105 KA relative to UGCAUGU; under B18, 0.00432 KA relative to UGCAUGU.
Under B19 stands 0.0147 KA relative to UGCAUGU.
Under B20 stands 0.0189 KA relative to UGCAUGU.
Turning to B21, the binding signal was 0.00309 KA relative to UGCAUGU.
As for B22, the binding signal is 0.00852 KA relative to UGCAUGU.
Under B23 stands 0.0204 KA relative to UGCAUGU; under B24, 0.00512 KA relative to UGCAUGU.
Then B25, with 0.0156 KA relative to UGCAUGU; and B26, with 0.0183 KA relative to UGCAUGU.
Then B27, with 0.0166 KA relative to UGCAUGU.
For B28, the binding signal is 0.00367 KA relative to UGCAUGU.
Consider B29, for which the binding signal is 0.0204 KA relative to UGCAUGU.
Then B30, with 0.0129 KA relative to UGCAUGU; and B31, with 0.00327 KA relative to UGCAUGU.
